{
  "source": "the BET-seq Pho4 binding data (Le et al. 2018)",
  "note": "This is one part of the list. The energies were worked out here from pooled read counts, against the library average; single values are noisy.",
  "data": [
    {"biological_target": "T1, Pho4 (S. cerevisiae) (UniProt P07270)", "T1 sequence": "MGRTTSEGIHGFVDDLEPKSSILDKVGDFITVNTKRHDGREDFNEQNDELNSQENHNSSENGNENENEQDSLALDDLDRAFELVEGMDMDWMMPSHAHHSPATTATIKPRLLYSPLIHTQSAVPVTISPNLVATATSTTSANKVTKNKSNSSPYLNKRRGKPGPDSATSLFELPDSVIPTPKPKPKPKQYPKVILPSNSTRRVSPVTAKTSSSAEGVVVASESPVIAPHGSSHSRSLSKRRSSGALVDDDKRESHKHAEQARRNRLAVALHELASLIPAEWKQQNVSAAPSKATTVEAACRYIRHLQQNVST", "experiment": "relative binding free energy (BET-seq); higher = weaker binding", "details": "reference: library average", "units": {"relative binding free energy": "kcal/mol"}, "values": [
      {"sequence": "AGAGTCACGTGGAAGT", "relative binding free energy": 0.1},
      {"sequence": "ATTAGCACGTGGGAAT", "relative binding free energy": -0.02},
      {"sequence": "TTTATCACGTGTATTG", "relative binding free energy": 0.16},
      {"sequence": "AGTGGCACGTGGAGGG", "relative binding free energy": -0.04},
      {"sequence": "TGATACACGTGAATTG", "relative binding free energy": 0.14},
      {"sequence": "TTATTCACGTGGCGTA", "relative binding free energy": 0.15},
      {"sequence": "GTGGTCACGTGGTGAC", "relative binding free energy": 0},
      {"sequence": "TTAGACACGTGGGAAA", "relative binding free energy": -0.01},
      {"sequence": "CATGGCACGTGGGTTT", "relative binding free energy": -0.04},
      {"sequence": "GTGTACACGTGAAGGA", "relative binding free energy": 0.31},
      {"sequence": "GTTTGCACGTGCATTT", "relative binding free energy": 0.13},
      {"sequence": "TAGTGCACGTGGTAAA", "relative binding free energy": -0.12},
      {"sequence": "TGTTGCACGTGGGAAT", "relative binding free energy": -0.04},
      {"sequence": "GTCTTCACGTGGTTAA", "relative binding free energy": 0.33},
      {"sequence": "ATGTTCACGTGATAAA", "relative binding free energy": 0.37},
      {"sequence": "GGGGCCACGTGATGGG", "relative binding free energy": 0.07},
      {"sequence": "GTTGCCACGTGCGTGG", "relative binding free energy": -0.08},
      {"sequence": "TTAATCACGTGTTCGG", "relative binding free energy": 0.08},
      {"sequence": "TTTGGCACGTGGTTTC", "relative binding free energy": -0.12},
      {"sequence": "GGTTGCACGTGTTTGA", "relative binding free energy": 0},
      {"sequence": "TCTGACACGTGGTTAT", "relative binding free energy": -0.09},
      {"sequence": "TTTCTCACGTGAGGTT", "relative binding free energy": 0.42},
      {"sequence": "GGGGTCACGTGTAGTA", "relative binding free energy": 0.23},
      {"sequence": "TTGCGCACGTGGTGGC", "relative binding free energy": -0.21},
      {"sequence": "TTACTCACGTGTTAAG", "relative binding free energy": 0.28},
      {"sequence": "AACGTCACGTGTTGTT", "relative binding free energy": 0.14},
      {"sequence": "CTTAACACGTGGTTGG", "relative binding free energy": 0.01},
      {"sequence": "TATTTCACGTGATTCG", "relative binding free energy": 0.35},
      {"sequence": "TAGGACACGTGAGAGT", "relative binding free energy": 0.13},
      {"sequence": "GTGGACACGTGGGCCT", "relative binding free energy": -0.07},
      {"sequence": "TAATGCACGTGGGAAA", "relative binding free energy": -0.14},
      {"sequence": "ATATGCACGTGGGAGT", "relative binding free energy": -0.13},
      {"sequence": "TTGGGCACGTGAAAAT", "relative binding free energy": 0.12},
      {"sequence": "TATGTCACGTGATATA", "relative binding free energy": 0.16},
      {"sequence": "TCAGACACGTGGTTGG", "relative binding free energy": -0.02},
      {"sequence": "GATGGCACGTGGGGGA", "relative binding free energy": -0.15},
      {"sequence": "TTTGGCACGTGGAATC", "relative binding free energy": -0.01},
      {"sequence": "CTGGGCACGTGAAGCG", "relative binding free energy": 0.22},
      {"sequence": "TATTTCACGTGGCGTA", "relative binding free energy": 0.16},
      {"sequence": "GTTGTCACGTGAGTGG", "relative binding free energy": 0.25},
      {"sequence": "CGGTGCACGTGGTGGT", "relative binding free energy": -0.1},
      {"sequence": "TAGGGCACGTGGACAG", "relative binding free energy": -0.13},
      {"sequence": "TATTTCACGTGTATGC", "relative binding free energy": 0.42},
      {"sequence": "CGTGGCACGTGGGGCT", "relative binding free energy": -0.24},
      {"sequence": "GGAGGCACGTGATCGT", "relative binding free energy": -0.14},
      {"sequence": "ATGGGCACGTGTCTAG", "relative binding free energy": -0.07},
      {"sequence": "GAGGGCACGTGAGTGG", "relative binding free energy": 0.2},
      {"sequence": "TAGCTCACGTGTGAGG", "relative binding free energy": 0.28},
      {"sequence": "GGGGACACGTGGCCGG", "relative binding free energy": -0.02},
      {"sequence": "CGAGGCACGTGGCGGA", "relative binding free energy": -0.25},
      {"sequence": "ATTCTCACGTGGTAGG", "relative binding free energy": 0.24},
      {"sequence": "TGACTCACGTGCGGTT", "relative binding free energy": 0.12},
      {"sequence": "GTGTACACGTGGTGTA", "relative binding free energy": -0.06},
      {"sequence": "GATTTCACGTGATTAA", "relative binding free energy": 0.41},
      {"sequence": "GATTCCACGTGGGGTG", "relative binding free energy": -0.01},
      {"sequence": "AGGGGCACGTGTAACT", "relative binding free energy": -0.07},
      {"sequence": "CTGGTCACGTGTCGGT", "relative binding free energy": 0.1},
      {"sequence": "TTAGGCACGTGGAGTG", "relative binding free energy": -0.16},
      {"sequence": "CTGTGCACGTGTTCGT", "relative binding free energy": -0.07},
      {"sequence": "GGTGACACGTGCTGAT", "relative binding free energy": 0.2},
      {"sequence": "GAAGGCACGTGGGGCC", "relative binding free energy": -0.12},
      {"sequence": "ATGATCACGTGTGGTT", "relative binding free energy": 0.12},
      {"sequence": "CTTTTCACGTGAGATT", "relative binding free energy": 0.3},
      {"sequence": "AAGCTCACGTGGAGGG", "relative binding free energy": 0.32},
      {"sequence": "GTTAACACGTGGATAT", "relative binding free energy": -0.02},
      {"sequence": "GGGGTCACGTGCTGGA", "relative binding free energy": 0.12},
      {"sequence": "AGTCGCACGTGGTATG", "relative binding free energy": -0.23},
      {"sequence": "TGAATCACGTGGAGTT", "relative binding free energy": 0.32},
      {"sequence": "TGTTACACGTGTCCGG", "relative binding free energy": 0.07},
      {"sequence": "AATAACACGTGATTTG", "relative binding free energy": 0.12},
      {"sequence": "GTGGTCACGTGATAGG", "relative binding free energy": 0.25},
      {"sequence": "ATAAGCACGTGTGGAG", "relative binding free energy": -0.12},
      {"sequence": "ATTGGCACGTGGGGAT", "relative binding free energy": -0.12},
      {"sequence": "TATTTCACGTGGTTGA", "relative binding free energy": 0.23},
      {"sequence": "GGATTCACGTGGACGG", "relative binding free energy": 0.38},
      {"sequence": "GTGTGCACGTGGTAGT", "relative binding free energy": -0.04},
      {"sequence": "AGGTGCACGTGACGTA", "relative binding free energy": 0.15},
      {"sequence": "GCTTACACGTGCGGGG", "relative binding free energy": 0.07},
      {"sequence": "ATGGTCACGTGGACGA", "relative binding free energy": 0.3},
      {"sequence": "GGGAACACGTGGGTAT", "relative binding free energy": -0.06},
      {"sequence": "AGCGGCACGTGGGCGT", "relative binding free energy": -0.26},
      {"sequence": "GTGAGCACGTGGGGAC", "relative binding free energy": -0.19},
      {"sequence": "TGGCGCACGTGGTAAA", "relative binding free energy": -0.06},
      {"sequence": "ATGTACACGTGTTTAC", "relative binding free energy": 0.06},
      {"sequence": "GTGAGCACGTGCAAGT", "relative binding free energy": 0.02},
      {"sequence": "GGAGACACGTGTGTGC", "relative binding free energy": 0},
      {"sequence": "AGTGTCACGTGTGGCT", "relative binding free energy": -0.06},
      {"sequence": "CGCGACACGTGGGGCG", "relative binding free energy": -0.14},
      {"sequence": "TTAATCACGTGGATGG", "relative binding free energy": 0.17},
      {"sequence": "TTGATCACGTGATATA", "relative binding free energy": 0.13},
      {"sequence": "TGTTGCACGTGACAGT", "relative binding free energy": 0.07},
      {"sequence": "TAAGTCACGTGAATGT", "relative binding free energy": 0.19},
      {"sequence": "TTAGACACGTGGTCAG", "relative binding free energy": -0.16},
      {"sequence": "ATGGGCACGTGAGAGT", "relative binding free energy": 0.14},
      {"sequence": "TACGCCACGTGGTGGG", "relative binding free energy": -0.26},
      {"sequence": "TGTCTCACGTGGTGCT", "relative binding free energy": 0.07},
      {"sequence": "TGGTTCACGTGTAAGT", "relative binding free energy": 0.24},
      {"sequence": "AATGTCACGTGGTTGG", "relative binding free energy": 0.11},
      {"sequence": "TGGAGCACGTGTCGAG", "relative binding free energy": -0.08},
      {"sequence": "GGTGGCACGTGAGCGT", "relative binding free energy": 0.06},
      {"sequence": "GTTGGCACGTGTCGTC", "relative binding free energy": -0.01},
      {"sequence": "GTTGTCACGTGTCAGT", "relative binding free energy": 0.02},
      {"sequence": "GTCGCCACGTGGAGGG", "relative binding free energy": 0.03},
      {"sequence": "GCAATCACGTGGTTTG", "relative binding free energy": 0.09},
      {"sequence": "GGTGCCACGTGTGGTA", "relative binding free energy": -0.09},
      {"sequence": "CAGTGCACGTGGGAAG", "relative binding free energy": -0.08},
      {"sequence": "AAGGACACGTGAGTGA", "relative binding free energy": 0.35},
      {"sequence": "GTATGCACGTGATTAT", "relative binding free energy": 0.18},
      {"sequence": "ATAAGCACGTGTAGGG", "relative binding free energy": -0.11},
      {"sequence": "TTTCTCACGTGTAGAG", "relative binding free energy": 0.25},
      {"sequence": "GTTTGCACGTGTGTCA", "relative binding free energy": 0},
      {"sequence": "GGGTGCACGTGTTGTG", "relative binding free energy": -0.02},
      {"sequence": "TGTTCCACGTGTGGGA", "relative binding free energy": 0.06},
      {"sequence": "TTATACACGTGTCGTG", "relative binding free energy": -0.06},
      {"sequence": "GGGTACACGTGGGGGA", "relative binding free energy": -0.01}
    ]}
  ]
}
